The results in this text go back to patent publication US9745597B2, “Compositions and methods for controlling fungal and bacterial diseases in plants” (priority 2014, dated 2017).

Format in all cases: cell-based
One assay concerns Erwinia carotovora. Put plainly: In vitro control of Erwinia carotovora, OD600 in 96-well plates (Example 27). Particulars: bacterial growth by OD600, mixture = 95% cell-free whole broth + 5% adjuvant. How it is done: (§1) A whole broth culture of Bacillus subtilis QST713 was prepared in a soy-based medium. Bacillus subtilis cells were removed from the whole broth culture by centrifugation. […] After several hours, the OD600 in each well was measured and compared to the initial OD600 to determine the relative bacterial growth compared to that of the bacterial suspension in the untreated well.

Assay [1] has as its system Xanthomonas campestris pv. vesicatoria. The assay can be described thus: In vitro control of Xanthomonas campestris pv. vesicatoria, OD600 in 96-well plates (Example 25). As to conditions: bacterial growth by OD600, mixture = 95% cell-free whole broth + 5% adjuvant. How it is done:
A whole broth culture of Bacillus subtilis QST713 was prepared in a soy-based medium as described above. Bacillus subtilis cells were removed from the whole broth culture by centrifugation. […] After several hours, the OD600 in each well was measured and compared to the initial OD600 to determine the relative bacterial growth compared to that of the bacterial suspension in the untreated well.

The test system of assay [2] is Pseudomonas syringae pv. tomato. Put plainly: In vitro control of Pseudomonas syringae pv. tomato, OD600 in 96-well plates (Example 26). Particulars: rate 0.11%; bacterial growth by OD600; mixture = 95% cell-free whole broth + 5% adjuvant. How it is done:
as §1

`CCCCCCCCOC(=O)CC(C(=O)OCCCCCCCC)S(=O)(=O)O.[Na]` (stereo not drawn) [MULTIWET ™ MO-70R, sodium dioctyl sulphosuccinate]: the “Efficacy in % Found” value in the assay on Erwinia carotovora (rate 0.11%) and with Erwinia carotovora (rate 0.22%) was 0% each time.
Regarding “alkyl polyethylene glycol ether phosphoric acid mono/diester [HOSTAPHAT ® 1306]”, the “Efficacy in % Found” value amounted to 43% in assay [1] (rate 0.11%); 37% in assay [1] (rate 0.22%); 27% in assay [1] (rate 0.44%); 0% in assay [2]; 0% in the assay with Erwinia carotovora (rate 0.11%); 9% in the assay on Erwinia carotovora (rate 0.22%). Moreover, the “Efficacy in % Found” value in the assay with Erwinia carotovora (rate 0.44%) is listed as 0%.
